# Experimental data published in the RNAGym collection of RNA variant scans (doi:10.7554/elife.90254).
# Read counts are not given, so values of variants with three or more changes are uncertain.
# B1: LINE1-mini (parent)
# chain: GGCAGAGCUCAACACAGCGUGGCAAAGUGGCUGUGGCUAGACUGCC
# Variants of: B1
# Test: self-cleavage, relative activity (ratio to wild type); higher = more cleavage; in vitro, sequencing; the parent is a self-cleaving ribozyme
row,Variant,self-cleavage
1,C3G A12G G27A G29U,0.06
2,G17U U32G G35A,0.46
3,G5A C23U G30C C31G U32A,0.05
4,A41C G44U C45A,0.1
5,G1A C3G C15U C46A,0.25
6,G2A C18A G35A U38A,0.13
7,A4G A12U G36C,0.06
8,U9C C15A G29C,0.02
9,C3A C15G C23G C37U,0.02
10,C3A G5A U9A G29U,0.34
11,G1C C18A G30C C46A,0.09
12,C3A A12C C15U G22U U38C,0.04
13,G2U A4G C8G U28G,0.03
14,A16U G30A U34G,0.1
15,G2A G19A A39G C45U,0.18
16,C10A C23G U34C G40U,0.01
17,G5A C15A A41G,0.03
18,G1U G19A G35A A41C G44A,0.02
19,A4G C8U A16G,0.02
20,A25G G29C A41C,0.03
21,G35U A39C A41C,0.11
22,A6U C13U C23A C31G C45G,0.09
23,C8U U9A C10A C46G,0.02
24,G5C A24U C45A,0.02

row,Variant,self-cleavage
1,C8U A11G G17C A24C,0.03
2,C13A G35A A41C,0.07
3,G1A C8A G29U U32G U38G,1.58
4,A11G A14U A25G U28A A39G A41U C46U,0
5,G1C A6G G17U C31A,0.09
6,G5C C13U U20C G22U G27A C45A,0.16
7,A12G G36U C42U,0.04
8,C13U G40A C45G,0.01
9,C15U G27U G33A G35C,0.34
10,A4G C8U G17A,0.03
11,G30A A39C A41G,0.1
12,G1U A4G C10U A11C A12C G21U G33U,0.01
13,G1U A4C U20G G21U U38G C42A C45U,0.05
14,A12C G17A G36A C42A G44A,0.02
15,A12G C15A G29A G44U,0.04
16,A12U A14U C18G A39G A41U,0.04
17,G7A A12C C13A G22A C31G,0.05
18,C3U G7A A12G G19U A25G,0.05
19,A6C C8U G22C G29C U43G C46U,0
20,C8A G19C C31G C37A,0.03
21,G1A U28A C31A,0.14
22,U20G U34A A39U C42A,0.05
23,G2A C15U G29A G40U,0.69
24,C3A G22C G27U G29A G30A U32G,0.15

row,Variant,self-cleavage
1,C10U A16U A24G,1.43
2,G2U A4U G17U U28C G35A,0.04
3,G7U U38A A41U,0.05
4,C8U C31G G40A,0.05
5,A4C C31G A41C,0.04
6,A4U G27A G29C C37G,0
7,G1U G27U U38G,0.01
8,A26G U43A G44U,0.16
9,G7C A25U C31U,0.11
10,G7C C18U A24G,0.11
11,G2C C18G A39G,0
12,A6U G17C G22A A25U,2.27
13,A11U A16C G29A,0.03
14,A16G A24U G35U A41U,0.07
15,A12U C23G G44U,0.27
16,C18U G29C C37A,0.04
17,A12C A16U C18U G21U U34G C42U,0.01
18,C15U G19C U34A,0.07
19,G2C C13G G27U C46U,0.02
20,U9G A11G C15A U38A,0.02
21,A14U G22A C42U G44A,0.28
22,C31G U34A C45U,0.02
23,G1U C3G A4U A6G U9G G35C,0.03
24,G7U A25C C31U U43A,0.05

row,Variant,self-cleavage
1,G2A C10A G17U C31G,0.15
2,G19A G33U G35A C37A,0.03
3,G2U C8A A11U G27C,0.02
4,C23G U28C C31A U34C,0.02
5,G2U G29U G35A G40A,0.09
6,C10A G27A U43A,0
7,A11G C37A A39C,0
8,C10A G27A C31U C42U,0.01
9,G7A U9A G40A,0.14
10,A24G G35U G36C,0.02
11,C13U A26G U28C,0.06
12,G5A C31U C45A,0.03
13,G2U G19C A24G,0.05
14,A12C G29C U43G C46U,0
15,G19C U32G U34A,0.03
16,C8U G22U A39G,0.02
17,G7A A24U G30U,2.94
18,A4C G22A A39G,0.05
19,G19C U20C U43A,0.03
20,U9G C10U C42U,0.14
21,C13G A39C C42A G44U,0.04
22,G2A C13U C31A,0.3
23,G5C U9G C37A,0.81
24,G2C C10G G44C C46A,0

row,Variant,self-cleavage
1,A6C C18U G27C G35U,0.02
2,G1A G7A U38G,0
3,C8A C13A C15U,0.56
4,G2U C10U C18G G21C C23G U38G C42G C46U,0.01
5,A4U A14G C42G,0.02
6,C3U C8U A12G A39U C45G,0.02
7,A6C C10U U32A,0
8,C8U C15U U20G A25C G29A,0.48
9,A4C C13U G17U G29A,0.07
10,A6C C13A G29U,0.12
11,U9A G22A G29C U32A G35U G44U C45U,0.18
12,C3A A16U U34G G35C,0.15
13,G17U C18A G22U G29A U34A,0.19
14,A12C G22A G30U,0.01
15,G2C C31U C42A,0.04
16,G7A G19U A26C,0.05
17,G5C U34G C42G,0.03
18,G1U C13G G22A,0.1
19,C3G G7U G40A,0.15
20,G5A G17A G22A,0.04
21,C3A A26C G33A C37A,0.3
22,A6C G27C U38G U43A,0
23,A11G U20A G33U C45A C46A,0.01
24,A11G G19C G40A,0.01

row,Variant,self-cleavage
1,C13U C37U G44A,0.07
2,G5A A11G C23U A26U A41U,0.03
3,G5C U9A C23G U34A C42U,0.04
4,C23G A25C A26G U28C,0.41
5,G5C U20G G22U,0.06
6,G7A A16G U32C C42A,0.02
7,G7U A14G G21A,0.07
8,G21A A24G C45A,0.37
9,G19A C23A G44A,0.04
10,C13G U20A G22C A24U G30A,0.1
11,A11C C31U G36U C45A,0
12,G2C G17U G19U G21C G30A G33A C37A,0.09
13,G5U C10A G19C G22A G30A C42A,0.01
14,G1U C3G G17U U28A C31G G36C,0.05
15,C3U A16C G36A,0.04
16,C13U C15A U34G,0.04
17,G5U C10A A12C A24G C31U,0
18,A6C U28C A39G,0.04
19,A24G C31G U38C,0.04
20,C23G G29U C45U,0.9
21,G35A A41U G44U,0.05
22,A25G U32C G36U C42A G44A,0.04
23,C13A G29C C42U,0.14
24,G19U G33U G40U,0.04

row,Variant,self-cleavage
1,G21C C23U C31G U32A,0.03
2,G5A A6C C10U U38A A41U,0
3,C13U A39C A41G,0.04
4,A4C A11G G36U,0.02
5,C3G G29A G33U,0.06
6,G2A G19A A41G,0.63
7,C18A U28G C37A A39G,0.05
8,G5C A11G G30A G40U,0.02
9,G29U G44C C45A,0.08
10,G7U C15U A16U G36U,0.08
11,A12U A14C A16G,0.03
12,G1C A25G G27C,0.01
13,C15A G22U A25G,0.17
14,C3U C8A U34A,0.33
15,A6U C8U U32A,0.04
16,C10A G30U U38A G40A,0.02
17,G2A C10U A14U,0.11
18,G30A A39U C42A,0.17
19,C10A A26G G44A,0.03
20,G17U G22U C23A G27A G40A C45A,0.38
21,G40U C45A C46U,0.08
22,G7A C10G C13A A41U G44C,0.04
23,A14U G19A G22A,0.71
